Screen size: about 290,000 compounds; about 1,100 (0.38%) were called active. This list was built around the results that the source calls inconclusive (neither active nor inactive); the mix of calls is not that of the screen. Calls come from the whole dose curve; as a rule, active = well fitted inhibition curve with a large enough effect; inconclusive = small, poorly fitted or top-dose-only effect, or another doubt; inactive = no such curve, though single readings can be large or run the other way. Potencies of inconclusive entries are doubtful fits and often do not repeat.
What follows are compounds tested against Pyruvate kinase (Leishmania mexicana) (UniProt Q27686) (assay: qHTS Assay for Inhibitors of Leishmania Mexicana Pyruvate Kinase (LmPK)). Conditions: purified LmPK, Kinase-Glo ATP luminescence, 1 h; activity change, negative = inhibition: at 57.5 µM (top of the series) unless noted.
Sequence of UniProt Q27686 (Q27686 whole entry, looked up): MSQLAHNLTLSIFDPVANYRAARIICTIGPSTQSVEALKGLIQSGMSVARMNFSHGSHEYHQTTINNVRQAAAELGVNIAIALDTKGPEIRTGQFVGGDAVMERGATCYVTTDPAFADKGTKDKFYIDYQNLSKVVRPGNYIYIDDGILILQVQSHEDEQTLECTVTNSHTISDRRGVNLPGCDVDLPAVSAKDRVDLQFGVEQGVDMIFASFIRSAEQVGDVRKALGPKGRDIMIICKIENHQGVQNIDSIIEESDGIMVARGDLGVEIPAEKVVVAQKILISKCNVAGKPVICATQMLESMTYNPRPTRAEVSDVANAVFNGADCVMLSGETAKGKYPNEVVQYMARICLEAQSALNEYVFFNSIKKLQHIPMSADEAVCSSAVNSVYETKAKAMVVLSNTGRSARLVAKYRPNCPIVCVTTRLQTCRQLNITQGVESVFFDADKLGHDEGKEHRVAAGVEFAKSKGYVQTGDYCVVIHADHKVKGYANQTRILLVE
Method in brief: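 Purified LmPK (0.1 nM) with 0.5 mM PEP and 0.1 mM ADP in imidazole buffer pH 7.2 with MgCl2/KCl, 1 h at room temperature. ATP formed was read by luciferase luminescence and normalized to no-enzyme and uninhibited controls.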
In the case of `COc1cccc(NC(=O)c2ccc(CN3CCOCC3)cc2)c1`, the Potency is reported as inconclusive: 31.6 µM [falling, single point].
For `Oc1c(Br)cc(Br)cc1C=NCc1ccccc1`, the Potency was inconclusive: 39.8 µM [falling, single point].
In the case of `CSc1ccc(/C=N/NC(=O)c2sccc2C)cc1`, the Potency is reported as inconclusive: 17.8 µM [falling, partial curve].
For `COC(=O)c1ccccc1NC(=O)c1ccco1`, the “activity change, negative = inhibition” value was inactive: -6.41%.
For `O=c1[nH]c2ccc(S(=O)(=O)N3CCN(c4ccc(F)cc4)CC3)cc2o1`, the “activity change, negative = inhibition” value was inactive: 13.6%.
With `O=C(NCCc1ccc(Cl)cc1)Nc1ccc(Cl)cc1` the “activity change, negative = inhibition” value was inactive: -0.909%.
In the case of `Cc1occc1-c1n[nH]c(=S)n1CC(C)C`, the Potency is reported as inconclusive: 28.2 µM [falling, single point].
For `NS(=O)(=O)c1ccc(N=Nc2c[nH]c(=O)c(O)c2)cc1`, the Potency was inconclusive: 15.8 µM [falling, partial curve].
In the case of `Cc1cc(C(=O)Cn2nnc3ccccc3c2=O)c(C)n1-c1ccccc1F`, the “activity change, negative = inhibition” value is reported as inactive: 1.69%.
`CCOc1cc(/C=C2\SC(=S)N(Nc3ccccc3)C2=O)ccc1O` was tested, and the Potency was inconclusive: 20 µM [falling, single point].
For `COc1cc(/C=N/Nc2nncn2/N=C/c2ccc(O)c(OC)c2)ccc1O`, the Potency was active: 14.1 µM.
For `COc1cc(C(=O)Nc2ccc3c(c2)OCCO3)ccc1OC(F)F`, the Potency was inconclusive: 25.1 µM [falling, partial curve].
`Cc1occc1C(=O)N/N=C/C(Br)=C\c1ccccc1` was tested, and the Potency was inconclusive: 14.1 µM [falling, partial curve].
For `Cc1ccn2c(c1)nc(=S)n2C(=O)c1ccco1`, the Potency was inconclusive: 14.1 µM [falling, partial curve].
In the case of `CCN(CC)S(=O)(=O)c1cccc(NC(=O)CN2C(=O)c3ccc([N+](=O)[O-])cc3C2=O)c1`, the “activity change, negative = inhibition” value is reported as inactive: 0.0033%.
In the case of `O=C(O)C(Cc1c[nH]c2ccccc12)NS(=O)(=O)c1ccc(Cl)cc1` (stereo not given), the “activity change, negative = inhibition” value is reported as inactive: -1.81%.
In the case of `COc1ccc(OC)c(-n2c(-c3ccc(C)cc3)n[nH]c2=S)c1`, the Potency is reported as active: 2.51 µM.
In the case of `C/C(=N/NC(=O)c1ccoc1C)c1ccc(NC(=O)c2ccncc2)cc1`, the Potency is reported as inconclusive: 20 µM [falling, partial curve].
`CC1CCOC(c2coc3ccccc3c2=O)O1` (stereo not given) was tested, and the Potency was inconclusive: 22.4 µM [falling, partial curve].
For `CC(=O)Nc1ccc(Nc2nc(-c3cc4ccccc4oc3=O)cs2)cc1`, the “activity change, negative = inhibition” value was inactive: 6.4%.
`CCOC(=O)C(=O)CC(=O)c1ccc2c(c1)OCCO2` was tested, and the “activity change, negative = inhibition” value was inactive: -4.49%.
For `O=C(Nc1ccc2c(c1)CCC2)c1cccs1`, the Potency was inconclusive: 28.2 µM [falling, single point].
For `O=[N+]([O-])c1ccccc1N/N=C/c1cccc(O)c1O`, the Potency was inconclusive: 17.8 µM [falling, partial curve].
In the case of `C=CCn1c(-c2sc3nc(C)cc(C)c3c2N)n[nH]c1=S`, the Potency is reported as inconclusive: 10 µM [falling, partial curve].
For `Fc1ccccc1Nc1nc2c(s1)CCc1ccccc1-2`, the “activity change, negative = inhibition” value was inactive: -4.56%.
With `Fc1ccc(NCc2n[nH]c(=S)n2Cc2ccccc2)cc1` the Potency was inconclusive: 28.2 µM [falling, single point].
`CC1CCCN(c2ccc3nc4ccccc4c(=O)n3n2)C1` (stereo not given) was tested, and the Potency was inconclusive: 14.1 µM [falling, partial curve].
For `Nc1n[nH]c(=S)n1-c1ccc(Cl)cc1`, the Potency was inconclusive: 31.6 µM [falling, single point].
For `CCc1ccc(-c2ccc(C(=O)O)cc2)nc1`, the Potency was inconclusive: 25.1 µM [falling, partial curve].
In the case of `O=C1CC(N2CCN(c3nc4ccccc4s3)CC2)C(=O)N1c1ccc(F)cc1` (stereo not given), the “activity change, negative = inhibition” value is reported as inactive: 3.37%.
With `Cc1nn(-c2ccc(N3CCCCC3)nn2)c(C)c1CCC(=O)Nc1ccccc1F` the “activity change, negative = inhibition” value was inactive: -12.4%.
In the case of `CCOc1ccc(/C=C2\SC(=S)NC2=O)cc1OC`, the Potency is reported as active: 14.1 µM.
In the case of `COc1ccc(C(=O)Nc2ccccc2C(=O)N/N=C/c2ccc(O)c(OC)c2)cc1`, the Potency is reported as inconclusive: 17.8 µM [falling, partial curve].
For `Oc1ccc(/C=N/N=C/c2ccc(O)c(O)c2)cc1O`, the “activity change, negative = inhibition” value was inactive: -6.39%.
In the case of `COCc1n[nH]c(=S)n1-c1cccc2ccccc12`, the Potency is reported as inconclusive: 35.5 µM [falling, partial curve].
`CCC(=O)Nc1cnc(NC(=O)c2cccc(F)c2)cc1C` was tested, and the Potency was active: 20 µM.
`Cc1ccc(NC(=O)c2sccc2C)cc1[N+](=O)[O-]` was tested, and the Potency was inconclusive: 14.1 µM [falling, partial curve].
In the case of `NS(=O)(=O)c1ccc(Nc2ccc([N+](=O)[O-])c3nonc23)cc1`, the Potency is reported as inconclusive: 25.1 µM [falling, single point].
In the case of `CCc1c(C)c(C#N)c2[nH]c3ccccc3n2c1=S`, the Potency is reported as inconclusive: 31.6 µM [falling, single point].
For `O=C(Nc1cccc2nsnc12)c1ccc2c(c1)OCO2`, the Potency was inconclusive: 17.8 µM [falling, partial curve].
With `O=C(Nc1cccnc1)Nc1ccccn1` the “activity change, negative = inhibition” value was inactive: -13%.
`Cc1cc(N)n(-c2cc(C)c3ccccc3n2)n1` was tested, and the Potency was inconclusive: 28.2 µM [falling, single point].
With `Cc1nc(C2COc3ccccc3O2)sc1C(=O)O` (stereo not given) the Potency was inconclusive: 25.1 µM [falling, partial curve].
With `Cn1cccc1C(=O)Nc1nccs1` the Potency was inconclusive: 25.1 µM [falling, partial curve].
For `Oc1ccc(/C=N/Nc2nn3cnnc3c3ccccc23)cc1`, the Potency was active: 14.1 µM.
For `CCCOC(=O)c1c(-c2ccc(C)cc2C)csc1NC(=O)C1C2CCC(O2)C1C(=O)O` (stereo not given), the “activity change, negative = inhibition” value was inactive: 4.16%.
With `CCCOc1ccc(CSc2n[nH]c(C)n2)cc1` the Potency was inconclusive: 17.8 µM [falling, partial curve].
`CN(Cc1nc2ccccc2c(=O)[nH]1)CC(O)COCc1ccco1` (stereo not given) was tested, and the “activity change, negative = inhibition” value was inactive: 3.9%.
`Cc1ccc(F)c(NC(=O)CCc2ccccc2)c1` was tested, and the Potency was inconclusive: 20 µM [falling, single point].
`COc1cc(C(C(=O)NC2CCCC2)N(C(=O)c2snc(C(N)=O)c2N)c2ccccc2)cc(OC)c1OC` (stereo not given) was tested, and the “activity change, negative = inhibition” value was inactive: 0.156%.
In the case of `CCc1nc2c(sc3nc4c(cc32)COC(C)(C)C4)c(=O)n1Cc1ccco1`, the Potency is reported as inconclusive: 20 µM [falling, partial curve].
`COc1cc(/C=N/NC(=O)c2ccoc2C)ccc1O` was tested, and the Potency was inconclusive: 14.1 µM [falling, partial curve].
`O=C(/C=C/Nc1ccc(F)cc1F)c1ccco1` was tested, and the Potency was active: 10 µM.
With `CCC(/C=C1\Sc2ccc(OC)cc2N1CCO)=C\c1sc2ccc(OC)cc2[n+]1CCO` the Potency was active: 14.1 µM.
For `COC(=O)c1ccc2nc(-c3ccc4c(c3)OCO4)cn2c1`, the Potency was inconclusive: 15.8 µM [falling, partial curve].
With `N/C(=N\OC(=O)/C=C/c1ccccc1)c1ccccn1` the Potency was active: 12.6 µM.
`COc1ccc(-c2cc(C(=O)c3c(N)n(C)c(=O)n(C)c3=O)c3ccccc3n2)cc1OC` was tested, and the “activity change, negative = inhibition” value was inactive: -6.56%.
With `O=C(O)/C=C\c1cc2c(cc1[N+](=O)[O-])OCO2` the “activity change, negative = inhibition” value was inactive: -4.98%.
`C(=C\c1nc2ccccc2[nH]1)/c1ccccc1` was tested, and the Potency was active: 8.91 µM.
In the case of `O=C(Nc1ccccc1)c1cn2ccccc2n1`, the Potency is reported as active: 15.8 µM.
`COc1ccc(-c2[nH]n(-c3ccc([N+](=O)[O-])cc3)c(=O)c2C=NCCN2CCNCC2)cc1` was tested, and the Potency was active: 15.8 µM.
For `CC(C)Cn1c(-c2csc3c2CCCC3)n[nH]c1=S`, the Potency was active: 10 µM.
For `Oc1ccc(/C=N/n2c(-c3ccccc3)n[nH]c2=S)cc1Br`, the Potency was inconclusive: 20 µM [falling, partial curve].
For `CCCc1ccc(-c2ccc(C(=O)O)cc2)nc1`, the Potency was inconclusive: 28.2 µM [falling, single point].
With `COc1cccc(CNC(=O)c2ccc(C(=O)NCc3cccc(OC)c3)cc2)c1` the “activity change, negative = inhibition” value was inactive: -8.71%.
`O=C(O)c1ccc2cccc(Cl)c2c1O` was tested, and the Potency was inconclusive: 39.8 µM [falling, single point].
In the case of `COc1ccc(-c2ncc3ccccn23)cc1OC`, the “activity change, negative = inhibition” value is reported as inactive: -0.745%.
`O=C1NC(=O)N(c2ccccc2)C(=O)/C1=C/c1ccc(Sc2ccccc2)o1` was tested, and the Potency was inconclusive: 35.5 µM [falling, single point].
With `O=C(NCC1CC1)c1ccc2c3n(nc2c1)-c1ccccc1CO3` the Potency was active: 14.1 µM.
`S=c1[nH]nc(Cc2ccccc2)n1-c1ccccc1` was tested, and the Potency was inconclusive: 11.2 µM [falling, partial curve].
For `Cc1ccnc(NC(=O)c2cccs2)c1`, the Potency was inconclusive: 17.8 µM [falling, partial curve].
With `Cc1ccc(C(=O)Nc2nc3ccccc3[nH]2)cc1` the Potency was inconclusive: 28.2 µM [falling, single point].
`O=c1/c(=C\c2ccc3c(c2)OCO3)sc2n1CCCN=2` was tested, and the Potency was inconclusive: 14.1 µM [falling, partial curve].
With `COc1ccc2sc(NC(=O)c3ccco3)nc2c1` the Potency was inconclusive: 15.8 µM [falling, partial curve].
With `COc1ccc(N2C(=O)c3ccccc3NC23CCCCC3)cc1` the Potency was inconclusive: 31.6 µM [falling, single point].
With `CSCC[C@H](NC(=O)[C@H](Cc1ccccc1)n1c(=O)[nH]c2ccccc2c1=O)C(=O)N1CCC[C@H]1C(=O)O` the “activity change, negative = inhibition” value was inactive: 2.97%.
`O=C(/C=C/Nc1ccc(F)cc1)c1ccco1` was tested, and the Potency was active: 12.6 µM.
With `Cc1ccc(/C=N/Nc2nc3ccccc3[nH]2)s1` the Potency was inconclusive: 15.8 µM [falling, partial curve].
In the case of `S=c1[nH]nc(-c2ccc(Cl)cc2)n1-c1ccc(Cl)cc1`, the Potency is reported as inconclusive: 39.8 µM [falling, single point].
For `Cn1cccc1/C=C1\CCc2ccccc2C1=O`, the Potency was inconclusive: 31.6 µM [falling, single point].
% is set by controls: 0 for no effect and ±100 for the full control effect; potency is the fitted concentration of half-maximal effect; tags give direction and shape of the fitted curve.
